The other results are listed elsewhere or left out.
T1: UNK ZnF1-3 (human, UniProt Q9C0B0 31-174)
T1 sequence: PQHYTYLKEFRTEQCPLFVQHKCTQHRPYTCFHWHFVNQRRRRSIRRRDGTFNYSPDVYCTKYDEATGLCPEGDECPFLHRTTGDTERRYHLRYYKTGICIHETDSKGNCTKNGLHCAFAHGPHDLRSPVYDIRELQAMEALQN

B1: chr9:66341014:66341015:+_ENSMUSG00000038664_ENSMUST00000042824|mus_mus|FALSE|FALSE (ssRNA)
RNA: GGGAGUUCUACAGUCCGACGAUCCCAUGCAGCACUGUGGCAACGGCCCGCUGAAAUCUGGCGGAUGUUUUUCCCUUGCAGAACUGUUACCAGGGUUGGUUCUCGAACGUGGUUGGUGUGGCCUAGGCCAAGCUGCCCUUCUGACAACAGAGGAUUGAGCAUCA
B2: chr1:93451714:93451715:+_ENSMUSG00000026311_ENSMUST00000027538|mus_mus|FALSE|FALSE (ssRNA)
RNA: GGGAGUUCUACAGUCCGACGAUCGCCUUCCCCACUAGGGCAAUCACCAGGCUCAGCCCAUGCUGCACACAUUGCCAGGAAGAAUCCAAAACAGAGAGACUGAAGAGGAACAAAAUUAAGUUUGUAUGUGCCUCUCAGUUGACACAACAGAGGAUUGAGCAUCA
B3: chr10:94818082:94818083:+_ENSG00000138190_ENST00000260762|hu_hu|motif|central (ssRNA)
RNA: GGGAGUUCUACAGUCCGACGAUCCUACAUGUGCUGGGACAUACCAUUCACCAAACUUCUCAGCUGUUUCACGACUGUCUCGGUCAACUUCUGUUUGUCUCGAUCAUUCUUCCUGAACUGAGCAAAUAUAUUGUUCUUUUUGCUCAACAGAGGAUUGAGCAUCA
B4: chr11:69548761:69548762:-_ENSMUSG00000005198_ENSMUST00000058470|mus_hu|motif|central (ssRNA)
RNA: GGGAGUUCUACAGUCCGACGAUCAGAUGUCGGUGAGUAGCUGGGAGACGUUGGCGAGUAGCUAGGGGAAGUGGGCGAGUAGCGGGGGGAAGUGGGUGAGUAGCUGGGAGAGGUGGGCGAGUAGCUGGGAGAGGUGGGCGAGUACAACAGAGGAUUGAGCAUCA
B5: chr8:98731313:98731314:+_ENSG00000147649_ENST00000336273|hu_hu|motif|central (ssRNA)
RNA: GGGAGUUCUACAGUCCGACGAUCAAAAGCUUUUUCCUGUUUUGGACGGGUUUUAGAGGUAUUCACUGGAAGGUCUUCUCGGAUCUCUUUUUCUAAUUCUUCUGUGUCCUGUGCAGUAGAGUUAUCUUCACCUUGCUUCUUCUUCAACAGAGGAUUGAGCAUCA
B6: chr5:65987834:65987835:+_ENSMUSG00000029203_ENSMUST00000142407|mus_mus|motif|central (ssRNA)
RNA: GGGAGUUCUACAGUCCGACGAUCGUUAUUUCACACAUUUCCUUCUUAUCUGAGAAUAUAAAGAACAGUACAAAGUUUUAGCGGCUUAAAAUAAAUAAAGAAAAACUUGUUUCCUUUGGCAUCUUUAUAAAAUAACCUACAGCACAACAGAGGAUUGAGCAUCA
B7: chr2:114674474:114674475:+_ENSG00000115091_ENST00000535589|hu_mus|FALSE|FALSE (ssRNA)
RNA: GGGAGUUCUACAGUCCGACGAUCGUCAUCCACGCCUUUCAUCACCCUCCUCUGGGCUUGGUCACCCACUUUUGCAGACUCUUUAAUGGCAAUACAUGAUGGGAUGAUAAACUGUGGCUCUGUAUUUCCAGCAUAUCCUAGUUUCAACAGAGGAUUGAGCAUCA
B8: chr1:225611761:225611762:-_ENSG00000143815_ENST00000272163|hu_mus|hu_hu_hu_mus_True|38_88 (ssRNA)
RNA: GGGAGUUCUACAGUCCGACGAUCCCAGGCCAUCGGCCUCUGACCACUUCACCAUCGACAAACUUCCUACUUGGCAUUUUCUAAAAUUAGUCUGGCCCAGGUUCCGGGGGAACUCCAGCCACUCCAGGACAGUCACCAGCAGCCCAACAGAGGAUUGAGCAUCA
B9: chr5:95128998:95128999:+_ENSG00000164292_ENST00000379982|hu_mus|FALSE|FALSE (ssRNA)
RNA: GGGAGUUCUACAGUCCGACGAUCAGCUUUUGUUCCCUUUUAAGACCACCACAGUCUUUAAAAGAUAACUAGUAAGAAGCUAUAUGGUGACUUUUAAAACAUAUUGAUUUUAGUUAUAAGAAUUUUUCCUGGAAUCCAGAAGUACAACAGAGGAUUGAGCAUCA
B10: chr12:66249844:66249845:-_ENSMUSG00000047534_ENSMUST00000052201|mus_mus|motif|central (ssRNA)
RNA: GGGAGUUCUACAGUCCGACGAUCUAACAGCUGUCUGCUAGUUCUAUCAGAUGCCUUUCCUUCAGUGAGAAAGUCCUUGCGGACAGCAGAUUUGUAAUGUGACUCUUUAGCAGAAGAUCGAGGUCUCUUUGGUGUGAUAUAACACAACAGAGGAUUGAGCAUCA
B11: chr16:38184571:38184572:+_ENSMUSG00000022812_ENSMUST00000023507|mus_hu|motif|central (ssRNA)
RNA: GGGAGUUCUACAGUCCGACGAUCCAGCUGAUACAUAUACAACUUGACAUAAAUCACAGGGAGCGUCUGUUUGGCUCGACGGUAGUGUCUGGCAACUCUGUAUACUGUUUCCGGAACAUAGUCCAGCACCAGAUUAAGAUAGACCAACAGAGGAUUGAGCAUCA
B12: chr12:73312838:73312839:-_ENSMUSG00000021087_ENSMUST00000021497|mus_hu|FALSE|FALSE (ssRNA)
RNA: GGGAGUUCUACAGUCCGACGAUCUCAGUAUCAAGUACAUAAGUGCAAAUAUCCAGAGUCCGUAAUUGAAUCCAUUAGGAACUACAGAGAAAGUAAUACAAAUUGUAAUAAAGUUAACAUGCUGGUACUUUUUAGUAACCAUACCAACAGAGGAUUGAGCAUCA
B13: chr7:141445308:141445309:+_ENSG00000106028_ENST00000265304|hu_hu|hu_hu_hu_mus_False|88_88 (ssRNA)
RNA: GGGAGUUCUACAGUCCGACGAUCUAUGAUUGUUGUUGCUUGCCGCCUCACAUUAUUUUUAUCCAUGUACUCGCCAUAGUCCACUUUCCCUUCCACAAAUAUACGAGCCCCCUUUUUCACAUACUGAUAUGCCACAUCUCUGAGCAACAGAGGAUUGAGCAUCA
B14: chr2:10580766:10580767:-_ENSG00000115758_ENST00000405333|hu_mus|FALSE|FALSE (ssRNA)
RNA: GGGAGUUCUACAGUCCGACGAUCCUCCUAGCCUUCCAUACUGCAUUGGUGCCAACCCUACUCUCACAAAGACAUCCCAAACUAGCAGUAAGUUAAAUGGUCCCCCCAAAUGCCUUAACACAAGCUAAACUUGCAGGCAAGAGCCAACAGAGGAUUGAGCAUCA
B15: chr7:54825262:54825263:-_ENSG00000132432_ENST00000352861|hu_hu|hu_hu_hu_mus_False|8_18 (ssRNA)
RNA: GGGAGUUCUACAGUCCGACGAUCCUGCCGGCUGGGCUCCACAAACUGCAUUACCUGAUCCAUGUUUGUUGGAUGGCGGAUUGAGAGCGUAGAGACACGUAGCUCAGGAGAGAACCGGAUGGAGGCCCACCGGAACCUGGCAACCAACAGAGGAUUGAGCAUCA
B16: chr2:198351390:198351391:-_ENSG00000144381_ENST00000345042|hu_hu|hu_hu_hu_mus_False|78_78 (ssRNA)
RNA: GGGAGUUCUACAGUCCGACGAUCUCAUUCCCACCCUCCACAGAAAGGCUGCUUCUGUUCUCAUCUGUGGUGACACAGCGCUACAGUCCUGAUGCUCACAGAACAGUAGAGAUGCCUCAGUGAUUUAAGUUGAAAGCAGGACACCAACAGAGGAUUGAGCAUCA
B17: chr2:173053163:173053164:-_ENSMUSG00000038400_ENSMUST00000036248|mus_mus|FALSE|FALSE (ssRNA)
RNA: GGGAGUUCUACAGUCCGACGAUCGAGCUUCUGCAUUCAGACCACACAGAACAUGUAAAUAUUUAUACACAGACAGGAGAACUACCACACGGCCACUCAGCCUGUGUGUCCCCUGACUUCCUCUCUCUUCUCUCUUAAGAAGUGCAACAGAGGAUUGAGCAUCA
B18: chr14:20710596:20710597:-_ENSMUSG00000043004_ENSMUST00000160013|mus_hu|FALSE|FALSE (ssRNA)
RNA: GGGAGUUCUACAGUCCGACGAUCAUCCUGUCGAUAUUGGCUUCCAUCUUAAGCUGCUCUACCAGCUUCCUGGCUUGUGCUAUGCUGGCGGUGUUGUUGCUGGCCAUCGGAGUGCUGGAUAGAUCUUUCAGAAACACUCUUCAGCAACAGAGGAUUGAGCAUCA
B19: 139369022_139369142_3059_CDS_ENSG00000148396_ENST00000313050|human|control|control (ssRNA)
RNA: GGGAGUUCUACAGUCCGACGAUCGUCAGAAUGGGACGGGUUGUACACGUUUACAGGAUUUUCCAAAGUCCUGCUUAAGGUAAAGUCUAGGGCUCCGUAAGUGUCUUCCUGAUGACUGGAAUGGUUUGCCUUAUUACCAUCAGGCAACAGAGGAUUGAGCAUCA
B20: chr16:11966626:11966627:-_ENSG00000103342_ENST00000563468|hu_mus|FALSE|FALSE (ssRNA)
RNA: GGGAGUUCUACAGUCCGACGAUCUUUUAACAUGUGCAGACACACUCCCACACUCAGAAUCAUCUGCCUGGGGGAAAAAGACUAACUAUGCCUAAGAAGAAAAUGAAAAAUAAAAAAAUUCCUGUAGGUUUUCAUUAUUGUAGGCAACAGAGGAUUGAGCAUCA
B21: chr1:157160411:157160412:-_ENSMUSG00000026469_ENSMUST00000027741|mus_hu|FALSE|FALSE (ssRNA)
RNA: GGGAGUUCUACAGUCCGACGAUCGAAUUCAAUCAGAAGAAAGCCACCCCGAUAGAUUCUUAUCAAGGGCCAUAUACUUCUAUCUGUUUCAAGUUUAAAUACAGCGGCAAGCACAAGGGUAAUAUUCAGUACAAUGAAUAUUCCCAACAGAGGAUUGAGCAUCA
B22: chr10:7461220:7461221:+_ENSMUSG00000019794_ENSMUST00000165806|mus_mus|motif|central (ssRNA)
RNA: GGGAGUUCUACAGUCCGACGAUCGACUUCUCCUUCAGCAGCUGGAAAUUCAUGUUGUGCAGCUUGCAAAGAAGUGAUGUCGGGUUUGAAGCUCUCGAGUGUUUUCAUGAUAUCCUUAACUUGCUUAGCUUCCACAUUUAUUUCCAACAGAGGAUUGAGCAUCA

biological target: T1, UNK ZnF1-3; experiment: nsRBNS (natural sequence RNA bind-n-seq); RBNS binding buffer (assumed for nsRBNS): 25 mM Tris pH 7.5, 150 mM KCl, 3 mM MgCl2, 0.01% Triton X-100, 500 ug/ml BSA, 20 U/ml SUPERase-In, 4 C; UNK is unkempt and MSI1 is Musashi-1; names of the RNAs are library labels; protein concentration not given here; high values mean tight binding

| Binder | binding signal |
| --- | --- |
| B1 | 0.682 enrichment R |
| B2 | 1.32 enrichment R |
| B3 | 0.422 enrichment R |
| B4 | 1.68 enrichment R |
| B5 | 0.326 enrichment R |
| B6 | 0.88 enrichment R |
| B7 | 0.828 enrichment R |
| B8 | 1.4 enrichment R |
| B9 | 1.93 enrichment R |
| B10 | 0.738 enrichment R |
| B11 | 0.869 enrichment R |
| B12 | 1.05 enrichment R |
| B13 | 0.784 enrichment R |
| B14 | 1.39 enrichment R |
| B15 | 1.09 enrichment R |
| B16 | 1.4 enrichment R |
| B17 | 0.911 enrichment R |
| B18 | 0.576 enrichment R |
| B19 | 0.675 enrichment R |
| B20 | 2.1 enrichment R |
| B21 | 1.1 enrichment R |
| B22 | 0.663 enrichment R |

— PMC12136788
